Source: the supplement of paper PMC7238544
Where a name gives a salt, the structure may show the parent alone. ± gives the standard deviation of the averaged measurements. Some of the results follow.

What was measured:
Details in all cases: priming compound concentration 100 µM
hAMSC donor 1 [1] = assay: Hoechst total cell count ratio vs vehicle control; higher = more cells (less toxicity)
hAMSC donor 2 [2] = assay: as above
hAMSC donor 1 [3] = assay: transgenic luciferase activity (RLU/mg protein) fold change vs vehicle control (ratio); higher = more transgene expression
hAMSC donor 1 [4] = assay: transfection efficiency (EGFP+ cells / Hoechst count) fold change vs vehicle control (ratio); higher = enhanced transfection
hAMSC donor 2 [5] = assay: as above
hAMSC donor 2 [6] = assay: transgenic luciferase activity (RLU/mg protein) fold change vs vehicle control (ratio); hAMSC are human adipose-derived mesenchymal stem cells given an EGFP-luciferase plasmid by lipofection; higher = more transgene expression
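Wherever Hoechst total cell count ratio vs vehicle control is given: compound added 30 min before Lipofectamine 3000 lipoplex delivery, triplicate-well means expressed against DMSO vehicle control wells of the same 96-well plate.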
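Wherever transfection efficiency (EGFP+ cells / Hoechst count) fold change vs vehicle control is given: compounds added 30 min before Lipofectamine 3000 lipoplex transfection, triplicate means relative to DMSO vehicle wells on the same plate, luciferase RLU normalized to BCA total protein.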
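Wherever transgenic luciferase activity (RLU/mg protein) fold change vs vehicle control is given: compounds in DMSO added 30 min before Lipofectamine 3000 transfection of pEGFP-Luc in 96-well plates, values are means of triplicate wells over DMSO vehicle wells on the same plate.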

SMILES | Hoechst total cell count ratio (hAMSC donor 1 [1]) | Hoechst total cell count ratio (hAMSC donor 2 [2]) | transgenic luciferase activity (hAMSC donor 1 [3]) | transfection efficiency (hAMSC donor 1 [4]) | transfection efficiency (hAMSC donor 2 [5]) | transgenic luciferase activity (hAMSC donor 2 [6])
CCc1c2c(nc3ccc(OC(=O)N4CCC(N5CCCCC5)CC4)cc13)-c1cc3c(c(=O)n1C2)COC(=O)[C@]3(O)CC [Irinotecan hydrochloride] | 1.34 ± 0.13 | 0.454 ± 0.011 | 0.0843 ± 0.034 | – | – | –
Nc1ccn([C@@H]2O[C@H](CO)[C@@H](O)C2(F)F)c(=O)n1 [Gemcitabine hydrochloride] | 0.659 ± 0.12 | 0.394 ± 0.02 | 0.48 ± 0.27 | 1.31 ± 0.26 | 1.66 ± 0.26 | –
Cc1ccc(C)c(OCCCC(C)(C)C(=O)O)c1 [Gemfibrozil] | 1.44 ± 0.4 | 1.38 ± 0.2 | 0.538 ± 0.32 | 1.2 ± 0.074 | 0.843 ± 0.3 | –
O=C1CCc2ccc(OCCCCN3CCN(c4cccc(Cl)c4Cl)CC3)cc2N1 [Aripiprazole] | 0.0727 ± 0.035 | 0.061 ± 0.023 | 0.0233 ± 0.033 | – | 1.95 ± 0.37 | 0.00155 ± 0.0019
CC(=O)OCC[N+](C)(C)C [Acetylcholine chloride] | 1.1 ± 0.1 | 1.14 ± 0.37 | 0.337 ± 0.15 | 1.03 ± 0.049 | 0.844 ± 0.22 | –
COc1ccc2cc([C@H](C)C(=O)O)ccc2c1 [Naproxen sodium] | 1.47 ± 0.17 | 0.834 ± 0.12 | 1.34 ± 0.32 | 0.623 ± 0.052 | 1 ± 0.21 | 0.371 ± 0.071
CCOC(=O)N1CCC(=C2c3ccc(Cl)cc3CCc3cccnc32)CC1 [Loratadine] | – | – | 0.329 ± 0.096 | 0.694 ± 0.17 | 1.41 ± 0.49 | 1.3 ± 0.35
C[C@@H]1C[C@H]2[C@@H]3CCC4=CC(=O)C=C[C@]4(C)[C@@]3(F)[C@@H](O)C[C@]2(C)[C@@]1(O)C(=O)COP(=O)(O)O [Dexamethasone sodium phosphate] | 1.37 ± 0.04 | 1.26 ± 0.15 | 7.71 ± 0.4 | 2.36 ± 0.48 | 1.24 ± 0.036 | –
CC[C@H]1OC(=O)[C@H](C)[C@@H](O[C@H]2C[C@@](C)(OC)[C@@H](O)[C@H](C)O2)[C@H](C)[C@@H](O[C@@H]2O[C@H](C)C[C@H](N(C)C)[C@H]2O)[C@](C)(O)C[C@@H](C)C(=O)[C@H](C)[C@@H](O)[C@]1(C)O [Erythromycin] | 1.46 ± 0.065 | 1.89 ± 0.24 | 0.938 ± 0.38 | 0.579 ± 0.24 | 0.648 ± 0.2 | –
CCC(C)(C)C(=O)O[C@H]1C[C@@H](C)C=C2C=C[C@H](C)[C@H](CC[C@@H]3C[C@@H](O)CC(=O)O3)[C@H]21 [Simvastatin] | – | – | 1.91 ± 1.5 | 1.87 ± 0.47 | 1.76 ± 0.12 | 1.11 ± 0.1
O=C(O)C[C@H](O)C[C@H](O)/C=C/c1c(C2CC2)nc2ccccc2c1-c1ccc(F)cc1 [Itavastatin calcium] | 1.16 ± 0.089 | 0.538 ± 0.019 | 0.462 ± 0.12 | 0.6 ± 0.086 | 2.04 ± 0.37 | –
COc1ccc(CC2c3cc(OC)c(OC)cc3CC[N+]2(C)CCC(=O)OCCCCCOC(=O)CC[N+]2(C)CCc3cc(OC)c(OC)cc3C2Cc2ccc(OC)c(OC)c2)cc1OC (configuration not stated) [Atracurium besylate] | 0.0353 ± 0.0095 | 0.162 ± 0.13 | 0.00475 ± 0.0013 | – | 0.846 ± 0.44 | 0.000616 ± 2.1e-05
COC1=CC(=O)C[C@@H](C)[C@]12Oc1c(Cl)c(OC)cc(OC)c1C2=O [Griseofulvin] | 1.55 ± 0.038 | 1.5 ± 0.018 | 0.411 ± 0.11 | 0.333 ± 0.1 | 0.794 ± 0.063 | –
Clc1ccc(CO/N=C(\Cn2ccnc2)c2ccc(Cl)cc2Cl)c(Cl)c1 [Oxiconazole nitrate] | 0.294 ± 0.089 | 0.0323 ± 0.025 | 0.000982 ± 0.00021 | 0.498 ± 0.16 | 0.591 ± 0.51 | –
CC(C)[C@H](N)C(=O)OCCOCn1cnc2c(=O)nc(N)[nH]c21 [Valaciclovir hydrochloride] | 1.34 ± 0.3 | 1.04 ± 0.047 | 0.25 ± 0.088 | 0.947 ± 0.16 | 1.14 ± 0.23 | –
CO/N=C(\C(=O)N[C@@H]1C(=O)N2C(C(=O)O)=C(COC(C)=O)CS[C@H]12)c1csc(N)n1 [Cefotaxime sodium] | 1.45 ± 0.12 | 1.39 ± 0.17 | 3.62 ± 2.8 | 1.41 ± 0.88 | 1.19 ± 0.049 | –
OCc1cc(C(O)CNCCCCCCOCCCCc2ccccc2)ccc1O (configuration not stated) [Salmeterol] | 0.109 ± 0.084 | 0.072 ± 0.019 | 0.0165 ± 0.018 | 0.469 ± 0.41 | 0 | –
O=c1c(-c2ccccc2)c1-c1ccccc1 [Diphenylcyclopropenone] | 0.0413 ± 0.031 | 0.112 ± 0.047 | 0.00277 ± 0.00018 | – | 0.0264 ± 0.046 | 0.000854 ± 0.00037
NC1CCN(c2cccc(Cl)n2)CC1 | 1.75 ± 0.29 | 1.2 ± 0.41 | 0.443 ± 0.32 | 0.935 ± 0.14 | 0.927 ± 0.17 | –
CCCc1c(OCCCCc2nnn[nH]2)ccc(C(C)=O)c1O | 1.55 ± 0.15 | 1.28 ± 0.27 | 0.752 ± 0.053 | 1.11 ± 0.11 | 1.2 ± 0.33 | –
CC(=O)CC(c1ccccc1)c1c(O)c2ccccc2oc1=O (configuration not stated) [Warfarin sodium] | 1.66 ± 0.088 | 1.36 ± 0.13 | 0.632 ± 0.39 | 0.995 ± 0.21 | 0.89 ± 0.088 | –
CCCC(=O)Nc1ccc(OCC(O)CNC(C)C)c(C(C)=O)c1 (configuration not stated) [Acebutolol hydrochloride] | 0.905 ± 0.16 | 1.23 ± 0.058 | 0.275 ± 0.24 | 0.878 ± 0.24 | 0.844 ± 0.085 | –
O=C(O)c1cc(=O)c2c(OCC(O)COc3cccc4oc(C(=O)O)cc(=O)c34)cccc2o1 [Cromolyn sodium] | 1.41 ± 0.016 | 1.36 ± 0.15 | 0.815 ± 0.3 | 0.775 ± 0.18 | 0.866 ± 0.11 | –
CN(C)CCCN1c2ccccc2CCc2ccccc21 [Imipramine hydrochloride] | 1.52 ± 0.22 | 0.955 ± 0.47 | 0.369 ± 0.19 | 0.522 ± 0.22 | 0.795 ± 0.28 | –
C[C@@H]1C/C=C/C=C/C=C/C=C/[C@H](O[C@@H]2O[C@H](C)[C@@H](O)[C@H](N)[C@@H]2O)C[C@@H]2O[C@](O)(C[C@@H](O)C[C@H]3O[C@@H]3/C=C/C(=O)O1)C[C@H](O)[C@H]2C(=O)O [Natamycin] | 1.58 ± 0.13 | 2.5 ± 0.34 | 0.052 ± 0.027 | 0.354 ± 0.032 | 0.419 ± 0.07 | –
CN(C)CC[C@@H](c1ccc(Br)cc1)c1ccccn1 [Dexbrompheniramine maleate] | 1.59 ± 0.074 | 1.3 ± 0.12 | 0.896 ± 0.79 | 0.716 ± 0.13 | 1.02 ± 0.15 | –
C[N+](C)(C)C[C@H](O)CC(=O)[O-] [L-Carnitine inner salt] | 1.17 ± 0.026 | 1.26 ± 0.29 | 0.686 ± 0.17 | 0.966 ± 0.41 | 0.836 ± 0.28 | –
CNC(=C[N+](=O)[O-])NCCSCc1ccc(CN(C)C)o1 [Ranitidine hydrochloride] | 1.24 ± 0.19 | 1.13 ± 0.19 | 0.697 ± 0.075 | 1.07 ± 0.088 | 1.31 ± 0.063 | –
CN(CCOc1ccc(CC2SC(=O)NC2=O)cc1)c1ccccn1 (configuration not stated) [Rosiglitazone maleate] | 1.66 ± 0.17 | 1.16 ± 0.077 | 1.91 ± 0.95 | 1.23 ± 0.09 | 1.45 ± 0.16 | –
